The text below walks through data of PubChem BioAssay AID938 (National Center for Advancing Translational Sciences (NCATS), 2007).

Where “and” joins values, the source holds several entries; their conditions need not be identical. Equal values may be shown once. In all, about 73,000 compounds went through this assay and about 1,800 (2.5%) were called active. Inconclusive results (about 13%) are left out. The call rests on the fitted dose curve; in most records, active means well fitted activation curve with a large enough effect; inconclusive means small, poorly fitted or top-dose-only effect; inactive means no such curve, though single readings can be large or run the other way. This is a selection; strong and weak results do not stand in their true shares. Where a structure was tested more than once in an assay, its records may differ in their call.
Potency means the concentration at half of the fitted maximal effect.

The nature of this assay: qHTS Assay for Agonists of the Thyroid Stimulating Hormone Receptor: Activators of Intracellular cAMP Concentrations in Parental HEK 293. Further: nearly all actives have a fitted effect of over 55% in size. On activation: % of control where 0% means no effect. The note with it: parental HEK293 CNG cAMP sensor, membrane potential fluorescence; series mostly up to 57.1 µM; activation: at the top concentration. In short, it runs like this:
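Parental HEK 293 cells stably expressing a modified CNG channel (no TSHR) report cAMP rise as membrane depolarization. Membrane potential dye with 100 uM RO 20-1724 was loaded for 60 min at room temperature, then compound added for 30 min; fluorescence read at 590 nm.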
`CCN1C(=O)/C(=C2/Sc3ccc(OC)cc3N2C)SC1=Nc1cccc(O)c1`: the “activation” value was inactive: -39.8%. In the case of `Cc1cccc([C@@H]2CN(C)CCc3c2cc(O)c(O)c3Cl)c1`, the Potency was active: 25.1 µM. Regarding `COC(=O)c1[nH]c2ccccc2c1NC(=O)CN1CCN(C/C=C/c2ccccc2)CC1`, the “activation” value was inactive: -60.6%. With `COC(=O)c1ccc(CSc2nc(-c3ccccc3)cs2)o1`, the Potency was active: 39.8 µM.

Take `Cc1cc(NCCOCCO)n2ncc(-c3ccc(Cl)cc3)c2n1`: the “activation” value was inactive: -31%. Take `CC(C)=CCC/C(C)=C/COc1c2ccoc2cc2oc(=O)ccc12`: the Potency was active: 12.6 µM. Same read-out and setting: with `O=C(CSc1nnc(COc2ccccc2)n1Cc1ccco1)c1ccc(F)cc1` the figure was active: 15.8 µM; with `Cc1nc2cnc(Oc3ccccc3)nc2n(CCc2ccccc2)c1=O`, active: 1.58 µM. `O=[N+]([O-])c1ccc(Cl)cc1Cl`: the “activation” value is inactive: 14.2%. On the same count and under the same terms, with `COC(=O)C1(C)Nc2ccccc2C(=O)N1c1ccccc1OC` (stereo not drawn) the figure was inactive: 24.4%; with `Cc1ccc(NC(=O)Cn2cccc2)cc1Cl`, inactive: 1.25%.

As for `O=C1CCCN1c1ccc(S(=O)(=O)N2CCN(c3ccccn3)CC2)cc1`, the “activation” value was inactive: 0.758%. Still for that read-out and setting: with `COc1cc(Nc2nc(SCC#N)nc3ccccc23)cc(OC)c1OC` the figure was inactive: -43.5%; with `Cc1ccc(/C=C/C2=Cc3c(sc(NC(=O)CSc4n[nH]c(N)n4)c3C#N)C(C)(C)C2)o1`, inactive: -6.22%; with `N=C1C(c2ccc(Br)cc2)=C(O)C2CCc3ccccc3N12` (stereo not drawn), inactive: -64.8%.

Consider `COc1cc(Cc2cnc(N)nc2N)cc(OC)c1OC`, for which the Potency entry was “inactive”.

On to `CCC(C)(C)n1nnnc1C(c1cccs1)N1CCN(Cc2ccccc2)CC1` (stereo not drawn), for which the Potency was active: 12.6 µM. As to `CC1CCC2C(=O)OC(CN=[N+]=[N-])CN2C1c1ccc(Br)cc1` (stereo not drawn), the activation was inactive: -3.42% [at 11.4 µM] and inactive: 14.2% [at 11.4 µM] and inactive: -1.14% [at 11.4 µM]. On to `CCCCOC(=O)c1ccc(N)cc1`, for which the “activation” value is inactive: -14% [at 25.6 µM].

Regarding `O=C(Nc1ccc2c(c1)OCO2)c1nn(-c2ccccc2)c(=O)c2ccccc12`, the Potency was active: 25.1 µM. Consider `N#Cc1c(/N=C/N2CCCC2)oc(-c2ccccc2)c1-c1ccccc1`, for which the “activation” value was inactive: 9.01%. Still for that read-out and setting: next, `CCN(CC)CCNC(=O)CS(=O)Cc1nc(-c2ccccc2Cl)oc1C` (stereo not drawn): inactive: 8.68%. `Cc1cc2oc(=O)cc(CN3CCC(C)CC3)c2cc1Cl`: the Potency is active: 25.1 µM.

Consider `COC(=O)[C@@]1(Cc2ccc(F)cc2)[C@H]2c3cc(C(=O)N4CCCC4)n(Cc4cc(C)n(C)n4)c3C[C@H]2CN1C(=O)c1ccccc1`, for which the Potency was active: 15.8 µM.

On to `C[C@]1(C(=O)NCc2cc(F)cc(C(F)(F)F)c2)C=C[C@@H](Cc2ccccc2)N1C(=O)c1ccccc1`, for which the Potency was active: 15.8 µM. As for `N#C/C(C(N)=O)=c1/ccc2c(c1)N1C3=C(CCCC3)CC3CCCCC31N=2` (stereo not drawn), the “activation” value was inactive: -106%. On the same count and under the same terms, with `O=C(C1CCC(CNc2c(N3CCCCC3)c(=O)c2=O)CC1)N1CCCCC1` (stereo not drawn) the figure was inactive: 25.7%; with `COc1ccc(CNc2nc3c(c(=O)n(Cc4ccc(Br)cc4)c(=O)n3C)n2C)cc1`, inactive: -36.6%; with `c1ccc(-n2nnnc2SCc2cn3ccccc3n2)cc1`, inactive: 3.16%. For `COC(=O)c1cc(CSc2nc3ccc(C)cc3[nH]2)oc1C`, the Potency is active: 20 µM. Take `COc1ccc(CCn2c(=N)c(C(=O)NCc3ccco3)cc3c(=O)n4cccc(C)c4nc32)cc1`: the “activation” value is inactive: -52.4%. Still for that read-out and setting: next, `CN[C@@H](CC(C)C)C(=O)N[C@@H]1C(=O)N[C@H](CC(N)=O)C(=O)N[C@@H]2C(=O)N[C@H]3C(=O)N[C@H](C(=O)N[C@H](C(=O)O)c4cc(O)cc(O)c4-c4cc3ccc4O)[C@H](O)c3ccc(c(Cl)c3)Oc3cc2cc(c3O[C@H]2O[C@@H](CO)[C@@H](O)[C@@H](O)[C@@H]2O[C@@H]2C[C@](C)(N)[C@H](O)[C@H](C)O2)Oc2ccc(cc2Cl)[C@@H]1O`: inactive: -10.3% [at 25.6 µM]; `Cc1c(N=Cc2ccc(-c3ccc(Cl)cc3)o2)c(=O)n(-c2ccccc2)n1C`: inactive: -36.6%. As to `CCOC(=O)c1c(C)c(C(=O)Nc2cc(F)ccc2F)c(C)n1C`, the Potency is active: 7.94 µM.

For `CCOc1cccc(NC(=O)C2CC(=O)N(C)C(=Nc3cccc(F)c3)S2)c1` (stereo not drawn), the “activation” value was inactive: -30.9%. With `O=C(c1cc(C(F)(F)F)cc(C(F)(F)F)c1)N1CCC2(CCCN(c3ccccn3)C2)CC1`, the Potency is active: 25.1 µM. Same read-out and setting: with `CCc1c2c(nc3cccc(OC)c13)OC(CC)C2` (stereo not drawn) the figure was active: 15.8 µM. For `Cc1c(C(=O)O)cccc1[N+](=O)[O-]`, the “activation” value was inactive: 0.384%. On the same count and under the same terms, with `NCCNC(=O)c1ccc(Cl)cc1` the figure was inactive: 0.0319%. For `COC(=O)[C@@]1(Cc2ccccc2)[C@H]2c3cc(C(=O)N4CCCC4)n(CCc4ccccn4)c3C[C@H]2CN1C(=O)c1ccccc1`, the Potency is active: 15.8 µM. Turning to `Cc1ccccc1CSc1nc2n(n1)C(c1cccs1)C1=C(CCCC1=O)N2` (stereo not drawn), the “activation” value is inactive: 5.39%. On the same count and under the same terms, next, `CC(=O)O[C@@H](C)C[N+](C)(C)C`: inactive: 11.4% [at 25.6 µM]; `COc1ccc2c(c1)c(C(O)CN1CCN(Cc3ccc4c(c3)OCO4)CC1)c(C)n2C` (stereo not drawn): inactive: -66.8%; `CCSC1=C(C#N)C(=O)n2c1cc1c2CCCC1`: inactive: -85.8%.

Turning to `COc1ccc(-c2cc(C(F)(F)F)n3ncc(C(=O)NCC4CCCO4)c3n2)cc1` (stereo not drawn), the Potency was active: 10 µM. As for `Cn1c(-c2ccc3c(c2)OCO3)cnc1NCc1cccc(Cl)c1`, the “activation” value was inactive: -74.5%. As to `CC(C)(C)NC(=O)C(c1ccco1)N(Cc1ccc2c(c1)OCO2)C(=O)Cn1nnc2ccccc21` (stereo not drawn), the Potency is active: 15.8 µM. In the case of `CN(C)CCCn1c2c3ccccc3ccc2c2oc(=O)c3ccccc3c21`, the activation is inactive: -45.2% [at 11.4 µM]. On to `O=C(c1cc(C(F)(F)F)cc(C(F)(F)F)c1)N1CCC2(CCCN(c3ccncc3)C2)CC1`, for which the Potency is active: 7.94 µM. On to `COCCNCC(=O)C12CC3CC(CC(C3)C1)C2`, for which the “activation” value was inactive: 44.7%. Same read-out and setting: with `c1ccc(CN(CC2=NCCN2)c2ccccc2)cc1` the figure was inactive: 11.9% [at 25.6 µM]. Still for that read-out and setting: next, `Cc1cc(NC(=O)Cc2cn3ccsc3n2)n(-c2ccccc2)n1`: inactive: -0.588%. Consider `Cc1cccc(NC(=O)c2cc3ccccc3o2)c1`, for which the Potency is active: 25.1 µM. As to `O=c1oc2ccc3ccccc3c2cc1-c1nnc(-c2ccccc2)o1`, the “activation” value is inactive: -38.5%. For the molecule `C=CC(=O)OCCCCCCOC(=O)C=C`, the “activation” value is inactive: 17.5%. With `CCOC(=O)c1c(NC(=O)Cc2cccs2)sc(C)c1C`, the Potency was active: 25.1 µM. On to `CC1=CC(=O)CC(C)(C)C1(O)/C=C/C(C)=C\C(=O)O` (stereo not drawn), for which the “activation” value is inactive: -23.7%. Still for that read-out and setting: next, `CC(=O)Nc1ccc(S(=O)(=O)N2CCN(c3nc(NC4CCCC4)c4ccccc4n3)CC2)cc1`: inactive: -53.3% [at 11.4 µM].
